# The list shows a part of the results. At the low end of the ranking the order means little.
# Target: T1, GST-Rok-C97-191 (UniProt O34857)
# T1 sequence: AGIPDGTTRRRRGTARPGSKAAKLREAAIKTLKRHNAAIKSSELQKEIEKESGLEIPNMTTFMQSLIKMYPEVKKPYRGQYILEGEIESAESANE
# Test: protein binding microarray;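 also: rank score from −0.5 (least bound) to 0.5 (best bound)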
# Details: Rok is a gene silencer of Bacillus subtilis; high values mean tight binding; most listed sequences are background and not binding sites; double strand, one strand shown
row,Sequence,binding signal
1,AACCATAA,0.0116 E-score
2,CTAAATAG,0.194 E-score
3,CCGTAGCC,-0.136 E-score
4,ATCTAGCG,0.202 E-score
5,AGCGTAGA,0.298 E-score
6,AGTACGAA,0.204 E-score
7,ATGTGGGA,0.0284 E-score
8,CTCGGTTA,-0.0509 E-score
9,CCTACGGA,0.00341 E-score
10,GTGCGATA,-0.0151 E-score
11,CAACAGTC,-0.174 E-score
12,CCTAAGTC,-0.0873 E-score
13,AAGTTCCC,-0.0517 E-score
14,GCTATAAA,0.217 E-score
15,CATGTCCA,0.132 E-score
16,AATTCCAA,0.0704 E-score
17,TGCTAAAA,0.177 E-score
18,GCAAATCC,-0.0218 E-score
19,AGGGCCCA,-0.232 E-score
20,TAATTCCA,0.207 E-score
21,AGCTCTCC,-0.194 E-score
22,AAAGTTCG,0.0847 E-score
23,CTTACAGC,0.0847 E-score
24,ATTCTAGA,0.245 E-score
25,AGATACAA,0.243 E-score

row,Sequence,binding signal
1,AGGGACAC,-0.294 E-score
2,AACGCCTT,-0.0323 E-score
3,ATGTAGGA,0.201 E-score
4,AGGAATTG,0.187 E-score
5,ACTACTAC,0.419 E-score
6,GTACTGGA,-0.0299 E-score
7,AATGCGAT,0.0443 E-score
8,TTAGGCAA,-0.13 E-score
9,AGCCACGA,-0.0279 E-score
10,TAACTTAA,0.182 E-score
11,AATGTGCG,-0.0696 E-score
12,CTTCCTTC,-0.24 E-score
13,AAGTACAA,0.349 E-score
14,GCTCCCCC,-0.388 E-score
15,CATACTCC,-0.0538 E-score
16,CTCGGGAC,-0.0122 E-score
17,CAGACTGG,-0.192 E-score
18,AAACCATA,0.152 E-score
19,GTGAACCA,-0.0676 E-score
20,ACAGGGGT,0.0522 E-score
21,CTTTCAGA,-0.128 E-score
22,AGTGAAAA,0.0326 E-score
23,ATCCGCCG,-0.183 E-score
24,CTCCGGGC,-0.249 E-score
25,AGGATCTG,-0.208 E-score

row,Sequence,binding signal
1,ACTGATGA,-0.147 E-score
2,CGTCGCAG,-0.0739 E-score
3,GGAGGCCA,-0.274 E-score
4,GACGAGGA,-0.147 E-score
5,AGTTGTTC,0.0102 E-score
6,AACAAAAT,0.158 E-score
7,CTAGAGCA,-0.0383 E-score
8,GAAGTCCC,-0.215 E-score
9,GTGCCAAC,0.0115 E-score
10,GGGGGGTA,-0.168 E-score
11,GAAACGTA,0.139 E-score
12,GAATGGTA,0.39 E-score
13,AGCGCAGG,-0.149 E-score
14,ATGAGGGG,-0.214 E-score
15,GCTGTCAA,-0.08 E-score
16,ACTTATAG,0.271 E-score
17,GCCTTTAC,-0.187 E-score
18,ACCATTCT,-0.0541 E-score
19,AAGAAATA,0.145 E-score
20,GACCCATA,0.0216 E-score
21,AAAGGAGG,-0.128 E-score
22,GCTGGCCC,-0.249 E-score
23,TGAAATCA,0.00701 E-score
24,CAGCTGTA,0.0433 E-score
25,CTAGAGAC,0.0353 E-score

row,Sequence,binding signal
1,CTCGGACC,-0.297 E-score
2,AGAACTTA,0.0838 E-score
3,AAGACTAG,0.222 E-score
4,AATACAGT,0.123 E-score
5,AGTTGTTA,0.201 E-score
6,ATTTACTA,0.439 E-score
7,GCTCAGCA,-0.187 E-score
8,AGCGGCAT,0.0357 E-score
9,CGATAAAA,0.202 E-score
10,AATTTTAT,0.316 E-score
11,AGAATATC,0.285 E-score
12,GCGGCCCA,-0.281 E-score
13,ACTCTGTC,-0.0445 E-score
14,ATGACCCG,-0.225 E-score
15,AATGCACA,0.0473 E-score
16,CCTGGTAC,-0.148 E-score
17,CCTCTCTA,-0.109 E-score
18,TCATAGCA,0.147 E-score
19,CCAACTCG,-0.0471 E-score
20,CCATTTCG,0.109 E-score
21,CCATATTA,0.121 E-score
22,CACGCGCA,-0.0772 E-score
23,ATAGCCTG,0.0234 E-score
24,TAAAGTGA,-0.138 E-score
25,CGCATCTA,0.0383 E-score

row,Sequence,binding signal
1,ACCTTACG,0.0462 E-score
2,ACGATAAA,0.161 E-score
3,TATATACA,0.402 E-score
4,GTATTAAC,0.252 E-score
5,TAGTTCGA,0.322 E-score
6,CATATCGC,-0.000637 E-score
7,AGTGGCAA,0.0513 E-score
8,AAACCGTG,0.0264 E-score
9,CACAAGCC,-0.284 E-score
10,CGACGAAG,-0.103 E-score
11,CAAAGTCC,-0.127 E-score
12,AAGCGCCC,-0.123 E-score
13,AATGACTC,-0.0437 E-score
14,AGACGCTA,0.165 E-score
15,AAAGCCGC,-0.276 E-score
16,CAAATGAC,0.00642 E-score
17,GCTAGGAA,-0.0616 E-score
18,CATGCAGC,-0.226 E-score
19,GTCGCTGA,-0.175 E-score
20,GCAGGTTA,-0.105 E-score
21,AAAGGACG,-0.25 E-score
22,CAGGAATC,-0.251 E-score
23,AACCCTGC,-0.259 E-score
24,GCCGAACA,-0.278 E-score
25,ACATTTAC,0.315 E-score

row,Sequence,binding signal
1,ATGTCTTA,0.121 E-score
2,AGCGATTG,-0.0954 E-score
3,AGACCTTA,-0.133 E-score
4,AGGGGGCC,-0.296 E-score
5,ATGGATCC,-0.287 E-score
6,TGAATAAA,-0.0759 E-score
7,GGCAGAAA,-0.00585 E-score
8,AGAGAGGA,-0.0391 E-score
9,CCGAGACG,-0.277 E-score
10,TCGAGTAA,0.211 E-score
11,CAGACTGA,-0.2 E-score
12,TACATATA,0.349 E-score
13,TCATTTAA,0.0413 E-score
14,CCCACAAA,-0.0087 E-score
15,AAATCAAG,0.113 E-score
16,CTCAAAAC,0.206 E-score
17,ATACGTCG,0.104 E-score
18,GGCCACCC,-0.275 E-score
19,CATTAGAC,-0.0549 E-score
20,AATTTGAT,0.227 E-score
21,ATACCCAA,0.154 E-score
22,AGAGAGGG,-0.199 E-score
23,TGTACAAA,0.355 E-score
24,AGGGTGAT,-0.206 E-score
25,CATGCTCG,0.00598 E-score

row,Sequence,binding signal
1,TAATACAA,0.297 E-score
2,AGATACTC,0.285 E-score
3,AGGAACTC,-0.0368 E-score
4,AAACGGTC,-0.126 E-score
5,CTTCGGAC,-0.14 E-score
6,GCCGCTCA,-0.293 E-score
7,GCTGCCAC,-0.306 E-score
8,AGTCATAT,0.117 E-score
9,ATAGGGGA,-0.145 E-score
10,AATTTTAC,0.384 E-score
11,AGGAGTTG,-0.135 E-score
12,GAACCCAC,-0.0684 E-score
13,GAGCCGAC,-0.236 E-score
14,AACCGAGC,-0.224 E-score
15,CACACAGC,0.0787 E-score
16,GATGGACA,-0.147 E-score
17,CAACTTAG,0.18 E-score
18,AAGCAGTA,0.143 E-score
19,GAGCTAAA,0.105 E-score
20,ATCCACCC,0.074 E-score
21,CACAAAGC,-0.0352 E-score
22,GAGTATGC,-0.233 E-score

# — PMC6212790
